# Assay results as given in the supplement of paper PMC3334620.
# Whole data set: some 33,000 sequences, median “E-score (-0.5 to 0.5)” near -0.054, cut for the highest 2% near 0.35. The list shows a part of the results.
# Molecular target: T1, Stb5 (UniProt P38699)
# T1 sequence: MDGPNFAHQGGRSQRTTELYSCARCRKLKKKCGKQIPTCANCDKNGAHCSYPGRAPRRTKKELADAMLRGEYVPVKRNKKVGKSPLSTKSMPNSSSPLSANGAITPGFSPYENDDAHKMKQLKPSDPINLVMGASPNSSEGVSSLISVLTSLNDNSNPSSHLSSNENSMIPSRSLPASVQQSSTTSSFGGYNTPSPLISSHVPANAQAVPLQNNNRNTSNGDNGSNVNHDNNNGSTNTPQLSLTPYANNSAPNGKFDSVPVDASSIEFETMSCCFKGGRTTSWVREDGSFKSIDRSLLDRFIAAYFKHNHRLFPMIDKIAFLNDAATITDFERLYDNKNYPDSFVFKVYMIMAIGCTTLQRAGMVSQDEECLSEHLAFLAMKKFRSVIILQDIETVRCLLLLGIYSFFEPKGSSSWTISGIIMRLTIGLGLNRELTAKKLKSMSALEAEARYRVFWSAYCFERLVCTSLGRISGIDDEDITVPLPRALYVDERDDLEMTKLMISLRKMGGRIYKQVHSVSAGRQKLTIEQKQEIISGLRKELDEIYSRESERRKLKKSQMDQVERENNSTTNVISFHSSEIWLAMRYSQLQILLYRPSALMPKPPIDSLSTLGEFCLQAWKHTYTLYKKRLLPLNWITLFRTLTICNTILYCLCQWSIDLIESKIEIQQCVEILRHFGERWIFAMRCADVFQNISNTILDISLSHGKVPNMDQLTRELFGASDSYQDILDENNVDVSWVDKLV
# Experiment: PBM E-score (8-mer binding enrichment) (E-score (-0.5 to 0.5)); higher = stronger / more preferred TF binding; most listed sequences are background and not binding sites
# Conditions: protein concentration: 200 nM; construct: GST-full length
# Outline: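 Using PURExpress in vitro transcription/translation, GST-tagged yeast transcription factors were made in full-length or DNA-binding-domain form. These were applied at about 100-200 nM to double-stranded universal all-10-mer Agilent arrays, and bound protein was detected with fluorescent anti-GST. Scans were normalised with masliner before the Universal PBM Analysis Suite assigned E-scores to ungapped eight-base words pooled with their reverse complements.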
row,Sequence,PBM E-score
1,GCTGCACA,-0.0762
2,AGACAGTG,-0.232
3,AGAATTCT,0.0541
4,CCTGTCGC,-0.0563
5,ATGTCTGG,-0.188
6,AGGGAATG,-0.156
7,AGACTTTA,-0.0944
8,AGCACAGA,-0.0721
9,GAAATCTA,-0.067
10,GAATAGCA,-0.0815
11,GTAGTTTA,0.0145
12,CCTTTTTC,-0.0307
13,CTTGAGGC,-0.0475
14,AACAGTAC,-0.17
15,ACGCTGGC,-0.0211
16,AAGTACGC,0.007
17,TTATGCAA,-0.166
18,ATTGTACA,-0.108
19,ACTGAACG,-0.162
20,GTGACAGA,-0.0308
21,CGCCGGCA,0.354
22,CAAAGGCC,0.272

row,Sequence,PBM E-score
1,ACGGGCCA,0.169
2,GACTGTGC,-0.163
3,CCCCTGCG,-0.0518
4,CCGACCCA,0.369
5,AGCCTTTC,-0.189
6,GAAGTCAA,-0.164
7,ATTCAACA,-0.0155
8,AATCCTTA,-0.199
9,CCTTTAAC,0.0973
10,CCCCCCCG,-0.255
11,ATTCGCGA,-0.117
12,ATAGTCAT,-0.164
13,AAAAGCCT,-0.122
14,CAGATATA,-0.0791
15,CACGCTCC,-0.00495
16,CGAATCCG,-0.0225
17,ACACAAAG,-0.28
18,CCGCACAC,0.247
19,CAAATCAA,-0.174
20,CAAGTATG,-0.101
21,TCGAGCGA,-0.179
22,CCTGATTA,-0.0802

row,Sequence,PBM E-score
1,AGATCGGA,0.335
2,ACAGTACA,-0.171
3,AATTGTCC,0.188
4,CCCGGGCC,0.253
5,ATGTGGCG,0.211
6,GTGTATAA,-0.0512
7,GCCCTCGC,0.0349
8,CCGACTGA,0.248
9,AATAGGGT,-0.175
10,CCGACGCC,0.315
11,CACACTCA,-0.265
12,AGCCTCCC,-0.141
13,ATACACTA,-0.0907
14,TAAGCACA,-0.0336
15,GTGAGGGA,-0.0417
16,CGGGTCCC,-0.0158
17,GTCCTCAA,-0.137
18,AATTCTGA,-0.0372
19,GACGCGGA,0.0671
20,CAACGTCG,0.038
21,ATCCCATG,-0.0545
22,ATGTGCTC,-0.151

row,Sequence,PBM E-score
1,CTCAAGGC,-0.114
2,ATACACTC,-0.0497
3,ATCCAGCA,-0.0774
4,GCGTATAC,-0.0651
5,GGTCAGCA,0.0432
6,CCGCATAC,0.202
7,CGTTGTAC,-0.041
8,AGGAGAAC,-0.164
9,ATGGAGTA,-0.0604
10,AGTTATAA,0.134
11,ATGTCGTG,-0.0651
12,CGCATGTA,0.158
13,CGTACAAG,-0.0216
14,CTAATTCA,-0.111
15,ACTGTTAC,-0.163
16,AAGCTCGA,-0.18
17,ATGTCTGA,-0.236
18,CAGTGAAA,-0.0205
19,ACCAAGCA,-0.0711
20,ACAGCCGG,0.2
21,CATATTAA,-0.0448
22,CCATTTTC,-0.0355

row,Sequence,PBM E-score
1,AGTTATGC,0.0315
2,ACAGCACC,0.202
3,ACCGCCTA,0.206
4,GGTTTGGA,0.0254
5,ATCGCATA,0.0573
6,GAAAACCA,-0.0411
7,ATGGGATA,-0.124
8,ATCCAAAT,-0.103
9,TGACTCAA,-0.195
10,CCCTCTTC,-0.315
11,ATTCCCAA,-0.197
12,GCGGGCCC,0.308
13,GGTCCTTA,0.179
14,AGATTCCG,0.132
15,ACTGCTCA,-0.274
16,ACATTAAC,0.0339
17,CTCCTTAC,-0.129
18,AGCGTCCT,-0.177
19,AGTTCCGC,0.361
20,ACGAGGAT,-0.242
21,GTTTTTCA,-0.0118
